Test results taken from the supplement of paper PMC5655136.
These are enrichments in a pooled selection; single values are uncertain.

System: NB7
Experiment: fold depletion of shRNA, plasmid library share / infected cells without Dox share (9 days) (ratio); higher = more depleted after infection (more toxic, leaky expression from a Tet-inducible vector; NB7 is a neuroblastoma line without caspase-8)
[1] = shRNA pool: CD95 ORF + CD95 3'UTR + Venus libraries
[2] = shRNA pool: CD95L ORF + CD95L 3'UTR + Venus libraries
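Also: shRNA barcodes quantified by deep sequencing of PCR amplicons from cellular DNA, counts expressed as percent of each subpool, ratio averaged over two biological duplicates.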

Sequence | fold depletion of shRNA [1] | fold depletion of shRNA [2]
TGTATGTGAACACTGTGACCC | 7.13 | 
TGTATGTTAGTACAAATGTCT | 0.9 | 
TGTATTAAATGTGAATTTTAA | 1.02 | 
TGTATTCAGTGAGGGTCTTCT |  | 1.82
TGTATTTCCAGTGCAATTGTA |  | 1.21
TGTATTTGAGTGCAGAATTTA | 1.04 | 
TGTCAACGTATCTGAGCTCTC |  | 1.27
TGTCAATGAAGCCAAAATAGA | 0.705 | 
TGTCAGCTACTAATGATGTTT |  | 2.43
TGTCATACCCCCAAGTTTCTA | 1.49 | 
TGTCATATTATACAATATTTC | 0.981 | 
TGTCATGAACCCATGTTTGCA | 3.69 | 
TGTCCAAGACACAGCAGAACA | 1.96 | 
TGTCCCATGTAAAACCTGCTA | 2.9 | 
TGTCCGGCGAGGGCGAGGGCG | 1.82 | 2.1
TGTCCTCCAGGTGAAAGGAAA | 1.27 | 
TGTCCTGCTTTCTGGAGTGAA |  | 0.39
TGTCTATCCACAGGCTAACCC | 7.14 | 
TGTCTCCTTGTGATGTTTTTC |  | 1.63
TGTCTGTAGCTCCTCAACTCA |  | 9.85
TGTCTTCTTCTTTTGCCAATT | 1.02 | 
TGTCTTTCAGATACATGGTTG |  | 1.19
TGTGAAATGAAAACATGTAAT |  | 0.599
TGTGAACACTGTGACCCTTGC | 1.44 | 
TGTGAACATGGAATCATCAAG | 1.21 | 
TGTGAAGATAGTTATAAACTG | 0.971 | 

Sequence | fold depletion of shRNA [1] | fold depletion of shRNA [2]
TGTGAAGTACATATTAGGAAA |  | 0.553
TGTGAATTCACATAGAAAACA | 1.18 | 
TGTGAATTTTAAGAAATAATA | 1.23 | 
TGTGACATGTCATGAACCCAT | 0.926 | 
TGTGACCCTTGCACCAAATGT | 1.72 | 
TGTGACCTGAGGATTTAAGGG |  | 2.13
TGTGATCAATGAAACTGGGCT |  | 1.85
TGTGATGTTTTTCATGGTTCT |  | 1.79
TGTGGGCCCGCAGCAGCTACC |  | 0.102
TGTGTATGACTAAAGAGAGAA |  | 0.914
TGTGTATTTCCAGTGCAATTG |  | 3.83
TGTGTCTCCTTGTGATGTTTT |  | 2.09
TGTGTGATGAAGGACATGGCT | 1.66 | 
TGTGTGTATGACTAAAGAGAG |  | 0.996
TGTGTGTGTATGACTAAAGAG |  | 3.08
TGTGTGTGTGTATGACTAAAG |  | 2.53
TGTGTGTGTGTGTATGACTAA |  | 1.63
TGTGTGTGTGTGTGTGTGTAT |  | 9.37
TGTGTGTGTGTGTGTGTGTGT |  | 2.36
TGTGTTTGGAATTATAAAATA | 0.783 | 
TGTTAATGCCCAAGTGACTGA | 1.05 | 
TGTTACAGGCACCGAGAATGT |  | 1.94
TGTTACTACAGTTGAGACTCA | 2.18 | 
TGTTAGTACAAATGTCTATCC | 0.669 | 
TGTTCAATAATGTCCCATGTA | 0.916 | 
TGTTCACCGGGGTGGTGCCCA | 1.92 | 1.73

Sequence | fold depletion of shRNA [1] | fold depletion of shRNA [2]
TGTTCGAAAGAATGGTGTCAA | 0.793 | 
TGTTCTACACTCATCTTAGTG |  | 1.83
TGTTGACTTGAGTAAATATAT | 0.687 | 
TGTTGCTAGATTATCGTCCAA | 1.4 | 
TGTTGTATTCAGTGAGGGTCT |  | 1.49
TGTTTAAAATCTAGTTGGGAA | 1.46 | 
TGTTTATAACTCTGAGAAGAT | 0.684 | 
TGTTTATGAGCCAGACAAATG |  | 0.922
TGTTTCAGCTCTTCCACCTAC |  | 3.92
TGTTTGAAAAGATTCTTAATA | 0.994 | 
TGTTTGACTATTATATATGTG | 0.836 | 
TGTTTGCAATCAAAGATGATA | 1.86 | 
TGTTTGGAATTATAAAATATA | 1.26 | 
TGTTTGGGTGAAGAGAAAGGA | 0.926 | 
TGTTTTCCTATAATATAATAA |  | 0.673
TGTTTTGGGGACTCATTTCAT |  | 3.3
TGTTTTTCATGGTTCTGGTTG |  | 8.92
TTAAAAATCATTGATTGTCAG |  | 2.27
TTAAAATCTAGTTGGGAAAAC | 1.14 | 
TTAAAGATCTCAAAAAAGCCA | 3.93 | 
TTAAAGGCTTTGTTCGAAAGA | 0.287 | 
TTAAATAAGGCTCTACCTCAA | 4.59 | 
TTAAATATCTTTGAAAGTTTG | 1.05 | 
TTAAATCCTGAAACAGTGGCA | 1.02 | 
TTAAATGTGAATTTTAAGAAA | 0.758 | 
TTAAATTATAATGTTTGACTA | 1.44 | 

Sequence | fold depletion of shRNA [1] | fold depletion of shRNA [2]
TTAACTCACCTCTCAAGGTGG |  | 3.97
TTAAGAAATAATATTTATATT | 1.13 | 
TTAAGATTCTCCTTACTACTA | 1.66 | 
TTAATAGCTGGCTGTAAATAC | 1.27 | 
TTAATAGTCCACCAAAAGGCA | 0.954 | 
TTAATATCTCATGATTCTGCC | 1.45 | 
TTAATGCCCAAGTGACTGACA | 4.69 | 
TTACAGGCACCGAGAATGTTG |  | 4.69
TTACCAGTGCTGATCATTTAT |  | 0.68
TTACCATATTTCTAAACTTTG | 0.706 | 
TTACCCATATCCCCAGATCTA |  | 0.758
TTACCTCTGATAATTCTAGAG | 0.855 | 
TTACGTCTGTTGCTAGATTAT | 1.27 | 
TTACTACAGTTGAGACTCAGA | 1.13 | 
TTACTACTATCCTACGTTTAA | 0.875 | 
TTACTAGTGACTCAGAAAATT | 0.874 | 
TTACTGGCTCAAAACTACCTA | 1.21 | 
TTACTGGGTACATTTTATCAT | 1.13 | 
TTAGAAATTCTAGCCTGGTTT | 2.03 | 
TTAGAAGTGGAAATAAACTGC | 1.15 | 
TTAGGAAAATATGGGTTGCAT |  | 5.34
TTAGGAATTGCTCTTGTCATA | 2 | 
TTAGGCAGATTGAAAAGGACA |  | 0.704
TTAGTACAAATGTCTATCCAC | 0.656 | 
TTAGTGCCTGAGAGTATTTAG |  | 1.17
TTAGTGTTTGAAAAGATTCTT | 1.02 | 

Sequence | fold depletion of shRNA [1] | fold depletion of shRNA [2]
TTATAAAATATAGGTAAAAGT | 1.01 | 
TTATAAACTGAAGCAGATACC | 1.17 | 
TTATAACTCTGAGAAGATCAT | 0.577 | 
TTATAATGTTTGACTATTATA | 0.741 | 
TTATACAATATTTCAATTGTG | 1.71 | 
TTATACATAGCAATGGTAAAA | 0.547 | 
TTATATATGTGTATGCATTTT | 0.815 | 
TTATATGTCAACGTATCTGAG |  | 2.5
TTATATTTCTGTAAATGTAAA | 1.33 | 
TTATCATTTATTAGCGCTGAA | 1.87 | 
TTATCGTCCAAAAGTGTTAAT | 16.6 | 
TTATCTGATGTTGACTTGAGT | 6.1 | 
TTATGATTCTTTGTTACAGGC |  | 1.51
TTATGTAAAGTATATGTATTT | 1.06 | 
TTATGTAGATGTGCATTTTTG |  | 8.55
TTATTGGTGTCATATTATACA | 0.87 | 
TTATTTTTCCCCCACCCCCGA | 11.4 | 
TTCAAAATGTCTGTAGCTCCT |  | 6.95
TTCAAACTTCAGAAATGAAAT | 0.781 | 
TTCAACTGCTTCGTAATTGGC | 14.7 | 
TTCAAGATCCGCCACAACATC | 0.776 | 1.76
TTCAAGGACGACGGCAACTAC | 1.67 | 1.81
TTCAAGGAGGACGGCAACATC | 1.26 | 2.84
TTCAAGTCCGCCATGCCCGAA | 0.855 | 0.657
TTCAATAATGTCCCATGTAAA | 0.643 | 
TTCAATCTTACCAGTGCTGAT |  | 0.883

Sequence | fold depletion of shRNA [1] | fold depletion of shRNA [2]
TTCAATTACCCATATCCCCAG |  | 0.949
TTCAATTGTGAATTCACATAG | 1.58 | 
TTCACATAGAAAACATTAAAT | 0.938 | 
TTCACCGGGGTGGTGCCCATC | 0.679 | 0.971
TTCACTTCTAAATGCATATCC |  | 0.682
TTCAGAAATGAAATCCAAAGC | 0.707 | 
TTCAGACTATCATCCTCAAGG | 1.42 | 
TTCAGATACATGGTTGTGACC |  | 2.77
TTCAGCGTGTCCGGCGAGGGC | 1.13 | 1.33
TTCAGCTCTTCCACCTACAGA |  | 9.79
TTCAGTTCTGAGTATATGCAA | 1.87 | 
TTCATCAAGAGTAAATGCAGT | 1.88 | 
TTCATGGAAAGAAAGAAGCGT | 1.08 | 
TTCATTCCTAACACAGCATGT |  | 0.981
TTCCAAATGCAGAAGATGTAG | 0.462 | 
TTCCACCTACAGAAGGAGCTG |  | 2.15
TTCCACTAATTGTTTGGGTGA | 1.03 | 
TTCCAGTGCAATTGTAGGGGT |  | 1.61
TTCCATTATGATTCTTTGTTA |  | 0.515
TTCCATTTATGGAGGATTTTT | 1.15 | 
TTCCCCCACCCCCGAAAATGT | 3.14 | 
TTCCGGGGTCAATCTTGCAAC |  | 7.2
TTCCTAACACAGCATGTGTAT |  | 1.18
TTCCTATAATATAATAAATAT |  | 1.08
